“Also recorded” adds a separate entry of the source. For part of its entries the source gives two or more results. This list holds those alone. How the calls were made is not given here. The source may hold further records. Values that stand side by side differ for a reason that is not stated; some may be repeats, others may stem from another dose, organism or construct than stated. Marks in square brackets tell the records apart. Letters count within one entry. Signs of the kind (2×) give the number of equal values in this list.
Test system: CCRIS mutagenicity, Ames/micronucleus/aberration tests
Experiment: CCRIS mutagenicity studies
[1] = Test System: AMES SALMONELLA TYPHIMURIUM, Strain/Indicator: TA98, Metabolic Activation: NONE, Method: STANDARD PLATE
[2] = Test System: MOUSE LYMPHOMA, Strain/Indicator: L5178Y (TK+/TK-), Metabolic Activation: NONE, Method: SUSPENSION/PLATE
[3] = End Point: IN VITRO CHROMOSOMAL ABERRATIONS, Test System: CHL CELLS, Metabolic Activation: NONE
[4] = Test System: AMES SALMONELLA TYPHIMURIUM, Strain/Indicator: TA100, Metabolic Activation: RAT, LIVER, S-9, AROCLOR 1254, Method: STANDARD PLATE

O=NN(CCO)CCO
mutagenic call (Test System: AMES SALMONELLA TYPHIMURIUM, Strain/Indicator: TA100, Metabolic Activation: HAMSTER, LIVER, S-9, POLYCHLORINATED BIPHENYLS, Method: PREINCUBATION): active; positive and inactive; negative
mutagenic call (Test System: AMES SALMONELLA TYPHIMURIUM, Strain/Indicator: TA100, Metabolic Activation: NONE, Method: PREINCUBATION): inactive; negative (2×) [study A] and active; positive [study B]
mutagenic call (Test System: AMES SALMONELLA TYPHIMURIUM, Strain/Indicator: TA100, Metabolic Activation: RAT, LIVER, S-9, POLYCHLORINATED BIPHENYLS, Method: PREINCUBATION): active; positive and inactive; negative

CC(=O)c1ccncc1
mutagenic call (End Point: IN VITRO CHROMOSOMAL ABERRATIONS, Test System: CHO-LB CELLS, Metabolic Activation: NONE): active; positive and inactive; negative

O=C/C(Br)=C(/Br)C(=O)O
mutagenic call (End Point: In vitro micronucleus, Test System: Human lymphoblastoid (TK6) cells, Metabolic Activation: None): active; positive (only at highest dose) and inactive; negative

O=C(O)c1cc(O)c2c(c1)[C@H]([C@H]1c3cc(C(=O)O)cc(O)c3C(=O)c3c(O[C@@H]4O[C@H](CO)[C@@H](O)[C@H](O)[C@H]4O)cccc31)c1cccc(O[C@@H]3O[C@H](CO)[C@@H](O)[C@H](O)[C@H]3O)c1C2=O
mutagenic call [1]: inactive; negative [sample A] and active; positive [sample B]
mutagenic call (Test System: AMES SALMONELLA TYPHIMURIUM, Strain/Indicator: TA98, Metabolic Activation: RAT, LIVER, S-9, AROCLOR 1254, Method: STANDARD PLATE): inactive; negative [sample A] and active; positive [sample B]

O=NN1CCCC1
mutagenic call (Test System: AMES SALMONELLA TYPHIMURIUM, Strain/Indicator: TA100, Metabolic Activation: MOUSE, LIVER, S-9, Method: PREINCUBATION): inactive; negative [study A] and active; positive [study B]
mutagenic call (Test System: AMES SALMONELLA TYPHIMURIUM, Strain/Indicator: TA1535, Metabolic Activation: RAT, LIVER, S-9, PYRAZOLE): inactive; negative and active; positive
mutagenic call (Test System: AMES SALMONELLA TYPHIMURIUM, Strain/Indicator: TA1535, Metabolic Activation: RAT, LIVER, S-9, Method: STANDARD PLATE): active; positive [study A] and inactive; negative [study B]

C=C(C)C(=O)OCC(CC)(COC(=O)C(=C)C)COC(=O)C(=C)C
mutagenic call [2]: inactive; negative [study A]; also recorded: active; positive [study B]; also recorded: inactive; negative. reevaluation of results: negative [study C]
mutagenic call (Test System: MOUSE LYMPHOMA, Strain/Indicator: L5178Y (TK+/TK-), Metabolic Activation: RAT, LIVER, S-9, AROCLOR 1254, Method: SUSPENSION/PLATE): inactive; negative [study A]; also recorded: inactive; negative. reevaluation of results: negative [study B]

Cc1ccc(N)c(C)c1
mutagenic call [3]: active; positive (structural changes) and inactive; negative

ClC(Cl)(Cl)Cl
mutagenic call [1]: inactive; negative [study A] and active; positive [study B]
mutagenic call (Test System: AMES SALMONELLA TYPHIMURIUM, Strain/Indicator: TA100, Metabolic Activation: NONE, Method: STANDARD PLATE): inactive; negative [study A] and active; positive [study B]
mutagenic call [4]: inactive; negative [study A] and active; positive [study B]
mutagenic call (Test System: E. coli, Strain/Indicator: WP2uvrA/pKM101, Metabolic Activation: None, Method: Gas exposure method): inactive; negative and active; positive
mutagenic call (Test System: E. coli, Strain/Indicator: WP2uvrA/pKM101, Metabolic Activation: Rat, Liver, S9, Sodium phenobarbital and 5,6-benzoflavone (10%), Method: Gas exposure method): inactive; negative and active; positive

C1COCOC1
mutagenic call (End Point: IN VITRO CHROMOSOMAL ABERRATIONS, Test System: CHINESE HAMSTER OVARY CELLS, Metabolic Activation: NONE): inactive; positive; authors report this result is invalid because a negative control had s; also recorded: inactive; negative

O=C=Nc1ccc(Cc2ccccc2N=C=O)cc1
mutagenic call (Test System: AMES SALMONELLA TYPHIMURIUM, Strain/Indicator: TA98, Metabolic Activation: RAT, LIVER, S-9, AROCLOR 1254 (30%), Method: STANDARD PLATE): active; positive and inactive; negative
mutagenic call (Test System: AMES SALMONELLA TYPHIMURIUM, Strain/Indicator: TA1538, Metabolic Activation: RAT, LIVER, S-9, AROCLOR 1254 (30%), Method: STANDARD PLATE): active; positive and inactive; negative

COc1cc(-c2ccc(N=C=O)c(OC)c2)ccc1N=C=O
mutagenic call [1]: inactive; negative [0.3 to 1000 µg/plate] and active; positive [0.3 to 3333.3 µg/plate]
mutagenic call [4]: inactive; negative [0.3 to 3333.3 µg/plate] and active; positive [1 to 1000 µg/plate]
mutagenic call (Test System: AMES SALMONELLA TYPHIMURIUM, Strain/Indicator: TA100, Metabolic Activation: RAT, LIVER, S-9, Method: STANDARD PLATE): inactive; negative [0.3 to 3333.3 µg/plate] and active; positive [1 to 1000 µg/plate]
mutagenic call (Test System: AMES SALMONELLA TYPHIMURIUM, Strain/Indicator: TA1538, Metabolic Activation: NONE, Method: STANDARD PLATE): inactive; negative [1 to 1000 µg/plate] and active; positive [1 to 3333.3 µg/plate]

CCCCCC[C@H]1C(=O)O[C@H](C)[C@H](NC(=O)c2cccc(NC=O)c2O)C(=O)O[C@@H](C)[C@@H]1OC(=O)CC(C)C
mutagenic call (End Point: In vitro chromosomal aberrations, Test System: Chinese hamster ovary (CHO-WBL) cells, Metabolic Activation: None): inactive; negative (2×) and active; positive (polyploidy)

C=CCOC(=O)c1ccccc1C(=O)OCC=C
mutagenic call (End Point: IN VITRO CHROMOSOMAL ABERRATIONS, Test System: CHO CELLS, Metabolic Activation: NONE): inactive; negative; also recorded: inactive; negative; oily suspension at 500 ug/ml (2×)

O=[N+]([O-])c1ccc(Cl)cc1Cl
mutagenic call [3]: inactive; negative; authors report equivocal results for ploidy changes at 0.1 and 0.2 mg/; also recorded: inactive; negative; authors report equivocal results for ploidy changes at highest dose
mutagenic call (Test System: AMES SALMONELLA TYPHIMURIUM, Strain/Indicator: TA98, Metabolic Activation: RAT LIVER S-9, PHENOBARBITAL AND BETA-NAPHTHOFLAVONE, Method: PREINCUBATION): inactive; negative and active; positive

Nc1ccc2cc3ccc(N)cc3nc2c1
mutagenic call (Test System: AMES SALMONELLA TYPHIMURIUM, Strain/Indicator: TA100, Metabolic Activation: HAMSTER, LIVER, S-9, AROCLOR 1254, Method: STANDARD PLATE): inactive; negative and active; positive (2×)
mutagenic call (Test System: AMES SALMONELLA TYPHIMURIUM, Strain/Indicator: TA100, Metabolic Activation: HAMSTER, LIVER, S-9, Method: STANDARD PLATE): active; positive and inactive; negative
mutagenic call (Test System: AMES SALMONELLA TYPHIMURIUM, Strain/Indicator: TA100, Metabolic Activation: MOUSE, LIVER, S-9, AROCLOR 1254, Method: STANDARD PLATE): active; positive (2×) and inactive; negative
mutagenic call (Test System: AMES SALMONELLA TYPHIMURIUM, Strain/Indicator: TA100, Metabolic Activation: MOUSE, LIVER, S-9, Method: STANDARD PLATE): inactive; negative and active; positive
mutagenic call (Test System: AMES SALMONELLA TYPHIMURIUM, Strain/Indicator: TA1535, Metabolic Activation: HAMSTER, LIVER, S-9, AROCLOR 1254, Method: STANDARD PLATE): inactive; negative (2×) and active; positive
mutagenic call (Test System: AMES SALMONELLA TYPHIMURIUM, Strain/Indicator: TA1535, Metabolic Activation: HAMSTER, LIVER, S-9, Method: STANDARD PLATE): inactive; negative (2×) and active; positive
mutagenic call (Test System: AMES SALMONELLA TYPHIMURIUM, Strain/Indicator: TA1535, Metabolic Activation: MOUSE, LIVER, S-9, Method: STANDARD PLATE): inactive; negative (2×) and active; positive
mutagenic call (Test System: E. COLI, Strain/Indicator: WP2 UVRA, Metabolic Activation: MOUSE, LIVER, S-9, AROCLOR 1254, Method: STANDARD PLATE): inactive; negative and active; positive (2×)
mutagenic call (Test System: E. COLI, Strain/Indicator: WP2 UVRA, Metabolic Activation: RAT, LIVER, S-9, AROCLOR 1254, Method: STANDARD PLATE): inactive; negative and active; positive (2×)
mutagenic call (Test System: E. COLI, Strain/Indicator: WP2 UVRA, Metabolic Activation: RAT, LIVER, S-9, Method: STANDARD PLATE): inactive; negative and active; positive

O=C1CCCCC1
mutagenic call (End Point: In vitro micronucleus, Test System: Bovine peripheral lymphocytes, Metabolic Activation: None): inactive; negative; also recorded: inactive; negative; authors describe as weak activity based on 2 non-dose related positive

COc1cc(-c2ccc(N)c(OC)c2)ccc1N
mutagenic call [3]: active; positive (structural changes); also recorded: active; positive (structural changes); precipitation of test chemical observed above 0.6
mutagenic call (Test System: AMES SALMONELLA TYPHIMURIUM, Strain/Indicator: TA1535, Metabolic Activation: HAMSTER, LIVER, S-9, AROCLOR 1254, Method: PREINCUBATION): inactive; negative (2×) and active; positive

CN(C)[C@@H]1C(=O)C(C(N)=O)=C(O)[C@@]2(O)C(=O)C3=C(O)c4c(O)cccc4[C@@](C)(O)[C@H]3[C@H](O)[C@@H]12
mutagenic call [2]: active; positive [study A] and inactive; negative [study B]

O=[N+]([O-])c1ccc(Cl)c([N+](=O)[O-])c1
mutagenic call (Test System: Ames Salmonella typhimurium, Strain/Indicator: TA1537, Metabolic Activation: None, Method: Preincubation): active; positive and inactive; negative and active; positive (results of retest)
mutagenic call (Test System: E.coli, Strain/Indicator: WP2uvrA/pKM101, Metabolic Activation: None, Method: Preincubation): active; positive (2×) and inactive; negative
mutagenic call (Test System: E.coli, Strain/Indicator: WP2uvrA/pKM101, Metabolic Activation: Rat, Liver, S9, Sodium phenobarbital and 5,6-benzoflavone (10%), Method: Preincubation): active; positive (2×) and inactive; negative

From PubChem BioAssay AID1259407 (Chemical Carcinogenesis Research Information System (CCRIS), 2018)
